Laboratory results taken from article PMC6386418.
Changes are numbered by the printed parent chain. Numbers in names are those of the source. Results are given in words; binding and its absence hold for the method and conditions named. For part of these data: Binding seen in cells or lysates may run through a third protein. Some binding calls cover weakened binding; strength is not graded here. Tags and fused reporters may be left off the sequences shown. Values belong to the binder of their own block, whether it stands above or below them.

How the values were obtained:
[1] = molecular target: T1, DB:UCN (UNICORN fused to the DNA-binding domain of GAL4) (Arabidopsis thaliana) (UniProt Q9SYB9); assay: two-hybrid; GAL4 system: DB:UCN versions with AD:PDK1 versions in yeast AH109; growth on SD medium without Leu, Trp, His and Adenine with 5 mM 3-AT, 30°C, 3 days; repeated three times
T1 sequence: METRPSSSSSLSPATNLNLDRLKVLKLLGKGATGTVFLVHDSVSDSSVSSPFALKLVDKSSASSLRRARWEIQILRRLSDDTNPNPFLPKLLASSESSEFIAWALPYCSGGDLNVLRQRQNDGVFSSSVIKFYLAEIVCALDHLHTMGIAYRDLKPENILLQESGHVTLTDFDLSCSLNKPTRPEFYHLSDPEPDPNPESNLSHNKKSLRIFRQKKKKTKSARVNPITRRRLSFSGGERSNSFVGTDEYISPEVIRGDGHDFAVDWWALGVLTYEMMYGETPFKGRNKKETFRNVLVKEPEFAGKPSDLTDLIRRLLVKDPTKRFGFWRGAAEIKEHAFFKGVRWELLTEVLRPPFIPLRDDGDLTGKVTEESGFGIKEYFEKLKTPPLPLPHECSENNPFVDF

[2] = molecular target: T2, DB:UCN_(G165S) (Arabidopsis thaliana) (UniProt Q9SYB9); assay: as above
T2 sequence: T1 sequence with G165S

[3] = molecular target: T3, DB:UCNKD (UCN_(K55E)) (Arabidopsis thaliana) (UniProt Q9SYB9); assay: as above
T3 sequence: T1 sequence with K55E

[4] = molecular target: T4, DB:UCN_(KD/ΔPIF) (Arabidopsis thaliana) (UniProt Q9SYB9); assay: as above
T4 sequence: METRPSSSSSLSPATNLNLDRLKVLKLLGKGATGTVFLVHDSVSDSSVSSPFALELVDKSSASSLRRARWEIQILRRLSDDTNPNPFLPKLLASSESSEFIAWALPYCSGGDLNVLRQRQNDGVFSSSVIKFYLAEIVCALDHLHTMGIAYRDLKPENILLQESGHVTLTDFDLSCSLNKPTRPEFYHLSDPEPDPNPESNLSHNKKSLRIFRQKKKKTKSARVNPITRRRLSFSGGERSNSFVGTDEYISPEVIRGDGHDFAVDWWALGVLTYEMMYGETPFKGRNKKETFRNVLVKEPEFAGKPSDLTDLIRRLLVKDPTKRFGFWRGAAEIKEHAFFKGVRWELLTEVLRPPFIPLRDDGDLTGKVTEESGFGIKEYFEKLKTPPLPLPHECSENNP

[5] = molecular target: T5, DB:UCN_(ΔPIF) (Arabidopsis thaliana) (UniProt Q9SYB9); assay: as above
T5 sequence: T4 sequence with E55K

[6] = molecular target: T6, UCN:YFPC (UNICORN fused to the C-terminal part of YFP) (Arabidopsis thaliana) (UniProt Q9SYB9); assay: split reporter; BiFC with split YFP (pSPYNE-35S / pSPYCE-35S) in Arabidopsis Col-0 mesophyll protoplasts; 21°C in the dark for 10 to 15 hours; confocal microscopy
T6 sequence: T1 sequence

[7] = molecular target: T7, UCN_(G165S):YFPC (Arabidopsis thaliana) (UniProt Q9SYB9); assay: as above
T7 sequence: T1 sequence with G165S

[8] = molecular target: T8, UCNKD:YFPC (UCN_(K55E)) (Arabidopsis thaliana) (UniProt Q9SYB9); assay: as above
T8 sequence: T1 sequence with K55E

[9] = molecular target: T9, UCN_(KD/ΔPIF):YFPC (Arabidopsis thaliana) (UniProt Q9SYB9); assay: as above
T9 sequence: T4 sequence

[10] = molecular target: T10, UCN_(ΔPIF):YFPC (Arabidopsis thaliana) (UniProt Q9SYB9); assay: as above
T10 sequence: T4 sequence with E55K

binding [6]: no binding
B2: PDK1.1KD (PDK1.1_(K73A)), BiFC fusion (enzyme, UniProt Q9XF67 1-491)
chain: MLAMEKEFDSKLVLQGNSSNGANVSRSKSFSFKAPQENFTSHDFEFGKIYGVGSYSKVVRAKKKETGTVYALAIMDKKFITKENKTAYVKLERIVLDQLEHPGIIKLYFTFQDTSSLYMALESCEGGELFDQITRKGRLSEDEARFYTAEVVDALEYIHSMGLIHRDIKPENLLLTSDGHIKIADFGSVKPMQDSQITVLPNAASDDKACTFVGTAAYVPPEVLNSSPATFGNDLWALGCTLYQMLSGTSPFKDASEWLIFQRIIARDIKFPNHFSEAARDLIDRLLDTEPSRRPGAGSEGYVALKRHPFFNGVDWKNLRSQTPPKLAPDPASQTASPERDDTHGSPWNLTHIGDSLATQNEGHSAPPTSSESSGSITRLASIDSFDSRWQQFLEPGESVLMISAVKKLQKITSKKVQLILTNKPKLIYVDPSKLVVKGNIIWSDNSNDLNVVVTSPSHFKICTPKKVLSFEDAKQRASVWKKAIETLQNR

binding [7]: no binding | binding [8]: no binding | binding [9]: no binding | binding [10]: no binding | binding [6]: binds
B4: PDK1.1:YFPN (PDK1.1 fused to the N-terminal part of YFP) (enzyme, UniProt Q9XF67 1-491)
chain: B2 chain with A73K

Further lines, the binder ahead of its results:

B1: AD:PDK1.1 (3-PHOSPHOINOSITIDE-… PROTEIN KINASE 1.1 fused to the activation domain of GAL4) (enzyme, UniProt Q9XF67 1-491)
chain: B2 chain with A73K
binding [1]: binds | binding [2]: no binding | binding [3]: no binding | binding [4]: no binding | binding [5]: no binding

B3: AD:PDK1.1KD (PDK1.1_(K73A)) (enzyme, UniProt Q9XF67 1-491)
chain: B2 chain
binding [1]: no binding
